From PubChem BioAssay AID463173 (ICCB-Longwood Screening Facility, Harvard Medical School, 2010)
Hit rate of the full screen: of about 52,000 compounds, about 4,300 (8.3%) were called active. No stated cut-off is given here; in the data, active means survival mostly below about 52% (no sharp cut-off); inactive means mostly above about 56%. The list shows a part of the results.

tested on: DeltatarO mutant; assay: S. aureus survival, RN4220 and DeltatarO strains – OD600, teichoic acid synthesis inhibitors, primary screen (AID 463173); conditions: S. aureus RN4220 wild type/DeltatarO growth, OD600, 18 h, hits give low values, screened at 18.75 µg/mL (by protocol)

Structure (SMILES) | survival
COc1nc(Nc2ccc(C)cc2)nc(NC2CCCC2)n1 | inactive: 81%
CNS(=O)(=O)c1cn(CC(=O)Nc2ccc(F)cc2F)cc1S(=O)(=O)NC | active: 0%
Cc1ccc(N2CC(c3nnc(Cc4ccc(Cl)cc4)o3)CC2=O)cc1 (centres undefined) | inactive: 48%
CCc1ccccc1NC(=O)CSc1nnc(-c2cc(OC)c(OC)c(OC)c2)o1 | inactive: 111%
CC(=O)Nc1cc(C(=O)NCc2ccccc2)ccc1Sc1ccc(C)cc1 | inactive: 99%
Cc1cccc(N2CCN(C(=O)Cn3c(=O)c4cccn4c4ccc(F)cc43)CC2C)c1 (centres undefined) | inactive: 82%
Cn1c(=O)c2sccc2n2c(CCCC(=O)Nc3ccc(F)cc3F)nnc12 | inactive: 132%
CCn1c(CN2CCN(c3cccc(Cl)c3)CC2)nc2c1c(=O)[nH]c(=O)n2C | inactive: 70%
Cc1cc2nn(-c3ccc(Cl)cc3)nc2cc1NC(=O)C(C)C | inactive: 125%
COCCCNc1ncnc2c1c(-c1ccccc1)cn2-c1ccc(C)c(Cl)c1 | inactive: 67%
COc1ccc2c(c1)c1c(c(=O)n(-c3ccccc3C)c(=O)n1Cc1ccccc1C)n2C | inactive: 83%
COc1ccc(OC)c(NC(=O)CN2C(=O)CC(c3ccco3)Sc3ccccc32)c1 (centres undefined) | inactive: 53%
O=C(COc1ccc(Cl)cc1)Nc1cc(-c2ccccc2)no1 | inactive: 76%
CCOCCCNC(=O)c1cnc2sc(N3CCCCCC3)nn2c1=O | inactive: 83%
CCOc1ccc(NC(=O)Cn2c(=O)n(CCc3ccccc3)c(=O)c3c4c(sc32)CN(C(C)=O)CC4)cc1 | inactive: 108%
O=C(CCc1nc(-c2ccccc2F)no1)Nc1cccc(C(F)(F)F)c1 | inactive: 81%
Cc1ccc(C)c(N2CCN(C(=O)c3cccc(-n4c(C)nc5cccnc54)c3)CC2)c1 | inactive: 78%
Cc1ccc(CC(=O)N(Cc2nc(-c3ccc(C)cc3)no2)C(C)C)cc1 | active: -4%
Cc1nn(-c2ccccc2)c(OC(=O)c2ccc(Br)cc2)c1S(=O)(=O)c1ccccc1 | inactive: 115%
CCOc1ccc(OCC)c(NC(=O)c2cc(C)nc3c2c(C)nn3-c2cccc(Cl)c2C)c1 | inactive: 94%
CC(=O)c1cccc(-n2c(=O)c3c4c(sc3n(Cc3ccccc3Cl)c2=O)CN(C(C)=O)CC4)c1 | inactive: 83%
Cc1ccc(C2CCN(C(=O)c3cnn(-c4ccccc4Cl)c3C3CCN(C(=O)OC(C)(C)C)CC3)C2)cc1 (centres undefined) | inactive: 67%
COc1cc(OC)c(C2C=C(C(=O)O)Nc3ncnn32)cc1OC (centres undefined) | inactive: 99%

Structure (SMILES) | survival
COc1ccc(CNC(=O)c2cc3ccccn3n2)c(OC)c1 | inactive: 71%
C=CCN(CC=C)C(=S)Nc1ccc2nc(C)c(C)nc2c1 | inactive: 79%
CCc1cccc2c(=O)c(C(=O)N3CCCC3)c[nH]c12 | inactive: 59%
CCOC(=O)c1ccc2c(c1)[nH]c(=S)n2CC | inactive: 87%
Cn1nc(C(=O)N2CCN(c3ccccc3)CC2)c2c1-c1ccccc1SC2 | inactive: 80%
CCCCOc1ccc(CNC(=O)Cn2ncn3c(cc4cc(F)ccc43)c2=O)cc1 | inactive: 81%
CCCCN(CC)C(=O)Cn1c(=O)n(-c2ccc(OCC)cc2)c(=O)c2c3c(sc21)CCC3 | inactive: 78%
CCn1c(=N)c(C(N)=O)cc2c(=O)n3ccccc3nc21 | inactive: 118%
O=C(CCN1C(=O)CSC1=O)Nc1ccccc1 | inactive: 114%
CC1=C(C#N)C(=O)NC(=O)/C1=C\c1ccc(-c2ccc(S(N)(=O)=O)cc2)o1 | inactive: 106%
Cc1ccc(C(=O)Nc2cccc(C(=O)OCc3cc(=O)n4c5c(sc4n3)CCCC5)c2)cc1 | inactive: 105%
Cc1ccc(NC(=O)C2CCCN(S(=O)(=O)c3cccc4cccnc34)C2)cc1Cl (centres undefined) | inactive: 72%
Cc1ccc2[nH]cc(C(c3ccccc3)c3cccs3)c2c1 (centres undefined) | active: 12%
COc1cc(OC)c(NC(=O)c2ccc3nc(C(C)C)oc3c2)cc1Cl | inactive: 76%
COc1ccccc1CNC(=O)c1cn(C)c2ccc(S(=O)(=O)N3CCC(C)CC3)cc2c1=O | inactive: 92%
O=C(COc1ccc(S(=O)(=O)NCc2ccccc2)cc1)NCc1ccco1 | inactive: 89%
CCOc1ccc(CCNC(=O)C2CCCN(c3nnc(C)c4c(C)n(-c5ccccc5)nc34)C2)cc1 (centres undefined) | inactive: 87%
NC(=O)c1c(NC(=O)c2noc3c2CCCC3)sc2c1CCCC2 | active: 40%
COc1ccccc1N1CCN(C(=O)C2CCN(S(=O)(=O)c3cccc4nonc34)CC2)CC1 | inactive: 81%
CCN(Cc1ccccc1)C(c1ccccn1)c1nnnn1C(C)(C)CC (centres undefined) | inactive: 75%
Cc1ccc(Nc2cc(C(=O)NC3CCCC3)c3ccccc3n2)cc1C | inactive: 83%
Nc1ncc(S(=O)(=O)NCc2ccccc2F)cn1 | inactive: 84%
CCOC(=O)c1c(C)n(-c2ccccc2)c2ccc(OC(=O)c3ccccc3Cl)cc12 | inactive: 54%

Structure (SMILES) | survival
CC(C)COc1ccc(C(=O)NCC2OCCc3ccccc32)cc1 (centres undefined) | inactive: 51%
COc1ccc(C(=O)NCC(c2ccco2)S(=O)(=O)c2ccccc2)cc1 (centres undefined) | active: -4%
CCOC(=O)c1c(C)oc2nc(C)nc(N3CCN(c4ccc(C)cc4C)CC3)c12 | inactive: 122%
CC(=O)N1CCCc2cc(S(=O)(=O)N3CCC(C(=O)NCc4ccc(F)cc4)CC3)ccc21 | inactive: 82%
Cc1ccc(Cl)cc1N1CC(O)=C(c2nc3ccccc3c(=O)[nH]2)C1=N | inactive: 67%
COc1ccc2oc(=O)c(C(=O)NCCc3c(C)[nH]c4c(C)cccc34)cc2c1 | active: 47%
CCc1ccc2nc(N3CCCCC3)c(C#N)cc2c1 | inactive: 88%
CCOc1cc2[nH]c(=O)n(CCC(=O)N3CCN(c4cccc(Cl)c4)CC3)c(=O)c2cc1OCC | inactive: 69%
COC(=O)c1cc(NC(=O)CCS(=O)(=O)c2cc(Br)cc3c2N(C(=O)C2CC2)CC3)cc(C(=O)OC)c1 | inactive: 97%
CCOC(=O)Cn1nc(C)c(NC(=O)COc2ccc(OC)cc2)c1C | inactive: 89%
Cc1ccccc1C(=O)Nc1ccc(NC(=O)c2cccs2)cc1 | inactive: 59%
CCOc1ccc(-c2csc3ncnc(Nc4cccc(O)c4)c23)cc1 | inactive: 74%
CCn1c2ccccc2c2cc(NC(=O)COc3cc(C)c(Cl)c(C)c3)ccc21 | active: 50%
COc1ccc(-n2nc(C(=O)O)cc2-c2ccccc2)cc1 | inactive: 61%
CC(=O)c1ccc(NC(=O)c2cccc(NC(=O)N3CCSc4ncccc43)c2)cc1 | inactive: 79%
CCOCCCNC(=O)c1c(NC(=O)Cc2coc3c(C)c(C)ccc23)sc2c1CCC2 | inactive: 60%
Cc1cc(C)cc(N(C)S(=O)(=O)c2nnc(NC(=O)COc3ccc(C)c(C)c3)s2)c1 | active: 30%
COC(=O)c1cc(C)nc2c1c(=O)nc(SCc1cc(C)ccc1C)n2C1CC1 | inactive: 67%
COc1cc(OC)c(NC(=O)COc2ccccc2-c2nnc(-c3ccccc3)o2)cc1Cl | inactive: 95%
CCN1CCOC(=O)C1CC(=O)Nc1ccccc1C(F)(F)F (centres undefined) | inactive: 71%
Cc1cccc(NC(=O)C2CCC(CNS(=O)(=O)c3ccc4c(c3)CCCC(=O)N4)CC2)c1C (centres undefined) | inactive: 73%
CCCN(C(=O)C1CCN(S(=O)(=O)c2c(C)noc2/C=C/c2ccc(C)cc2)CC1)c1ccccc1F | inactive: 80%
CC(C)(C)c1ccc(-c2nnc(-c3ccc(N4CCOCC4)cc3)o2)cc1 | inactive: 107%

Structure (SMILES) | survival
NC(=O)CN1C(=O)Cc2ccccc21 | inactive: 74%
O=C(CCc1ccccc1)N/N=C/c1cccc(O)c1 | inactive: 119%
CC(=O)N1CCc2c(sc3c2c(=O)n(-c2ccccc2Cl)c(=O)n3C)C1 | inactive: 88%
O=C(CSc1nnc(-c2ccco2)c(-c2ccco2)n1)N1c2ccccc2Sc2ccc(Cl)cc21 | inactive: 114%
CCn1c(C)cs/c1=N\C(=S)Nc1ccccc1C | inactive: 70%
Cc1ccc(-c2c(CN3CCN(c4cc(Cl)ccc4C)CC3)csc2C)cc1 | inactive: 51%
O=C(CSc1nc2ccccc2n1CC(=O)Nc1ccc(F)cc1F)Nc1ccc(F)cc1 | inactive: 89%
CCOc1ccc2c(c1)c(=O)c(S(=O)(=O)c1ccc(C)cc1)cn2CC(=O)Nc1ccc(C)cc1 | inactive: 66%
COCCCN1CCc2nc(SCC(=O)Nc3ccc(C)c(Cl)c3)[nH]c(=O)c2C1 | inactive: 83%
CCn1c(=O)c2cc(C(=O)NCCc3cccc(C)c3)sc2c2ccccc21 | inactive: 70%
CCOC(=O)c1cc(-c2ccc(/C=C(\C#N)C(N)=C(C#N)C#N)o2)ccc1Cl | inactive: 87%
CCc1ccccc1Nc1nn2c(=O)c3ccc(C(=O)NCCc4ccccc4)cc3nc2s1 | inactive: 69%
Cc1cccc(C(=O)NC2(C(F)(F)F)N=C(c3ccccc3)N(Cc3ccccc3)C2=O)c1 (centres undefined) | inactive: 73%
Cc1c(Cl)cccc1NC(=O)CN1C(=O)c2ccccc2Sc2ncccc21 | inactive: 83%
O=C(NC1CCCCC1)C1OC(c2ccccc2)OC1C(=O)NC1CCCCC1 (centres undefined) | inactive: 86%
CN(C)c1ccc(C(CNC(=O)COc2ccccc2)N2CCOCC2)cc1 (centres undefined) | inactive: 75%
O=C(CN1C(=O)CCSc2ccc(S(=O)(=O)N3CCCC3)cc21)Nc1cccc(Cl)c1 | inactive: 83%
CCOc1ccc(NC(=O)Nc2c(C)n(C)n(-c3ccccc3)c2=O)cc1 | inactive: 101%
CCN(CC)S(=O)(=O)c1ccc2c(c1)N(CC(=O)NCc1ccccc1)C(=O)CS2 | inactive: 73%
Cn1ncc2c(NCc3cccc(Cl)c3)ncnc21 | inactive: 102%
